In all, about 33,000 sequences were measured (“E-score (-0.5 to 0.5)”: median about -0.053, highest 2% from about 0.37 on). The list shows a part of the results.
Biological target: Hap1 (UniProt P0CE41)
Test: PBM E-score (8-mer binding enrichment) (E-score (-0.5 to 0.5)); higher = stronger / more preferred TF binding; most listed sequences are background and not binding sites
Details: protein concentration: 200 nM; construct: GST-DNA-binding domain
Method in brief: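 The E-score, a modified Wilcoxon-Mann-Whitney statistic, was computed by the Universal PBM Analysis Suite for every ungapped eight-base word pooled with its reverse complement. Scans behind it were normalised with masliner after bound GST-tagged yeast transcription factors were detected with fluorescent anti-GST. The proteins, at about 100-200 nM, had been applied to universal all-10-mer Agilent arrays made double-stranded by primer extension.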

Chain of UniProt P0CE41 (P0CE41 whole entry): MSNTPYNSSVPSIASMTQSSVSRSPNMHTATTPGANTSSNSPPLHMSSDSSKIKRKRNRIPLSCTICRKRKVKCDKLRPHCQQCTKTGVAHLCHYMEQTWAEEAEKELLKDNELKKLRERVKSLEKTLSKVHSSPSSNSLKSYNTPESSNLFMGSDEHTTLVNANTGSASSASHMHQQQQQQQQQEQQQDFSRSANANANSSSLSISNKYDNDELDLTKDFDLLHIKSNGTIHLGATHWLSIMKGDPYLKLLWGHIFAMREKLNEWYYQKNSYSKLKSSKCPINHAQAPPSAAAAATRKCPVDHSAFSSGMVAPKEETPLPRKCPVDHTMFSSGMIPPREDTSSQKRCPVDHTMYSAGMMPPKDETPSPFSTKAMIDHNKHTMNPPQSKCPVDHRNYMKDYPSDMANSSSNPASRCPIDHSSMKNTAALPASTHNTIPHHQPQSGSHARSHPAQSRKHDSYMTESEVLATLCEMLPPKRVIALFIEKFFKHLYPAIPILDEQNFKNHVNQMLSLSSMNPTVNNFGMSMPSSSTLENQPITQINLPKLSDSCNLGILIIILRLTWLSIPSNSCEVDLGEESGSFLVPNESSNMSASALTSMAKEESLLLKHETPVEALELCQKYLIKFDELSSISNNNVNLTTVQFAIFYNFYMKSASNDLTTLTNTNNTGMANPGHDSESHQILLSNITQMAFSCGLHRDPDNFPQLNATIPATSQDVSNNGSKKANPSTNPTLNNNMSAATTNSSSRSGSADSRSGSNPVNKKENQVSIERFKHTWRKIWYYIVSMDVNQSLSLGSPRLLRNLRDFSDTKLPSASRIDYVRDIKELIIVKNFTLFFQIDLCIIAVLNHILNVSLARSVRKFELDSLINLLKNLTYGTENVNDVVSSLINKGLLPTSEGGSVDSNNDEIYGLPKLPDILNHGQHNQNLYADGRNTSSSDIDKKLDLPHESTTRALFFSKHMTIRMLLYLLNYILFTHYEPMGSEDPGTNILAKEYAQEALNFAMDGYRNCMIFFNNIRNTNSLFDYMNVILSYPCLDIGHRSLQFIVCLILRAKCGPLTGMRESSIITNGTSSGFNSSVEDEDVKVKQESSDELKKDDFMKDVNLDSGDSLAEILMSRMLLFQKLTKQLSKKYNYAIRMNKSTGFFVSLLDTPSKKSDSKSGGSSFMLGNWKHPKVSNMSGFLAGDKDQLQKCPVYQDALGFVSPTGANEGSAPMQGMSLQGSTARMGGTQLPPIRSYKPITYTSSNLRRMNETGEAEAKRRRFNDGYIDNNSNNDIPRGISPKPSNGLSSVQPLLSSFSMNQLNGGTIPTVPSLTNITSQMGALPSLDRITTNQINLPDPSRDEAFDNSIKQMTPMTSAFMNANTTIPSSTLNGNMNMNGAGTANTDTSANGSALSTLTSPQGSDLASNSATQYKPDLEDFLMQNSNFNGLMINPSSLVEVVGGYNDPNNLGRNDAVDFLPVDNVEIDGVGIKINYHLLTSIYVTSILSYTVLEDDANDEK

Row | Sequence | PBM E-score
1 | ACTATACT | -0.122
2 | TTCCCCAA | -0.128
3 | CAAGTTAA | -0.207
4 | CTGTTCAA | -0.227
5 | CACGCTTC | -0.0806
6 | CCCATTTC | 0.0399
7 | GTGCGCTA | -0.163
8 | AAATAGCT | -0.135
9 | AAACGACT | -0.132
10 | CTATCATA | -0.0975
11 | CAGCATCA | -0.202
12 | GCCATTTA | -0.126
13 | TATTTTGA | -0.125
14 | CAAAGGCA | -0.213
15 | TCGTCCAA | -0.104
16 | ATGGGAAT | -0.152
17 | GCATGCCA | -0.2
18 | ACGCGATA | 0.124
19 | CAGTTGGC | -0.114
20 | GGCCATTA | 0.075
21 | CGTGTACC | 0.11
22 | CACATACG | -0.17

Row | Sequence | PBM E-score
23 | AATATCGG | 0.443
24 | GTTGCCAA | -0.147
25 | CGGTCTGA | 0.205
26 | AATCGCAG | -0.193
27 | ATTCTGGA | -0.106
28 | CGAGGAAC | 0.205
29 | AGAAATGC | -0.00665
30 | ACTATTAA | -0.148
31 | ATTAGTCA | 0.0699
32 | AAGCAGCA | -0.149
33 | GTGCCCCA | -0.204
34 | AATTTCTA | -0.0789
35 | AAACCCGG | 0.454
36 | TCAGACAA | -0.223
37 | CAGATAAA | 0.0431
38 | GGGCGATA | 0.179
39 | AATGGAGT | -0.165
40 | ACCTAGCT | -0.246
41 | ATGTCCTG | 0.00518
42 | AAAATCAT | -0.202
43 | ATTGGATG | -0.112
44 | AGGTCTTC | -0.313

Row | Sequence | PBM E-score
45 | GATCTTTA | -0.02
46 | GACCACCA | -0.0307
47 | AACGTTAC | -0.017
48 | AACTATAC | -0.0775
49 | GCGATGCA | -0.109
50 | GAAGATCA | -0.0794
51 | CGAACAGA | 0.117
52 | ACCGACAT | 0.194
53 | GTCGCGAA | 0.173
54 | ACCAAACC | 0.0716
55 | GAGAGCCA | -0.245
56 | CCGGGTTC | 0.296
57 | TATCCGAA | 0.364
58 | GCCAGGTA | -0.0688
59 | CCAGGCTC | -0.126
60 | AAGATCAC | -0.0442
61 | AAGGGCTA | -0.143
62 | CGAGGATC | 0.0403
63 | GGGTGACC | 0.0667
64 | CCTGGGAG | -0.117
65 | CAAAACAA | -0.35
66 | GACATTCC | -0.178

Row | Sequence | PBM E-score
67 | AGGCGCTA | -0.108
68 | CCGCCCAC | 0.135
69 | CTTGCACC | 0.00658
70 | ACGCACAG | -0.00766
71 | CACTCATG | -0.231
72 | CACCGTTA | 0.22
73 | AGGCTAAA | -0.122
74 | GTCTATGA | -0.0967
75 | CCGGCAAG | 0.269
76 | AAATATTG | 0.0436
77 | AATGATTA | -0.134
78 | AAGGATCC | -0.0435
79 | CGTCTCGA | -0.0828
80 | GGCGACAC | 0.247
81 | AGTTCATC | -0.0429
82 | AAGGATGT | -0.211
83 | GGCGGGTA | 0.0692
84 | ACGGCAGG | -0.0803
85 | ATTTACTA | 0.0715
86 | GTATATGA | -0.0527
87 | CCGGATAA | 0.435
88 | GGGTTCAA | -0.0262

Row | Sequence | PBM E-score
89 | ATTTTTCG | 0.137
90 | CTCTCCCA | -0.17
91 | GTTGGAGA | -0.195
92 | GTTGTGAA | -0.271
93 | ACGGGAAT | 0.314
94 | CTATTGTC | -0.0302
95 | ACCAAGTA | -0.248
96 | TCCTCTCA | -0.35
97 | GATGGAAA | -0.041
98 | CTGTTCGC | -0.0655
99 | GTTACTAA | -0.139
100 | GCCCACCC | 0.0486
101 | CTGGGGTA | -0.0554
102 | ATACCGTA | 0.092
103 | CTTAGATA | -0.059
104 | GGGTCTAA | 0.0639
105 | GTCGGGTA | 0.189
106 | ATGGCCAT | -0.0437
107 | AATCGCCT | 0.0771
108 | CCAAACTC | -0.0976
109 | AACGCTCG | 0.0839

Source: the supplement of paper PMC3334620
